# Data from patent US20240239885A1, “ANTIBODY CONJUGATE COMPRISING ANTI-P-CADHERIN ANTIBODY AND USES THEREOF” (WUXI BIOLOGICS IRELAND LIMITED, priority 2021, published 2024).
# B1: W3195-1.53.1-p1-uIgG1L-MMAE (conjugate)
# heavy: QVQLQESGPGLVKPSETLSLTCTVSGGSVISDNYYWTWVRQPPGKGLEFIGYIYYRGSTNYNPSLKNRVIISIDTSRNQFSLDLNSVTAADTAVYYCARDRRTGNSLPFDNWGQGTLVTVSSASTKGPSVFPLAPSSKSTSGGTAALGCLVKDYFPEPVTVSWNSGALTSGVHTFPAVLQSSGLYSLSSVVTVPSSSLGTQTYICNVNHKPSNTKVDKRV[human IgG1 Fc not written out]
# light: SYELTQPPSVSVSPGQTAQITCSGDKLGDKFASWYQQKSGQSPVVVIYQDNKRPSGFPERFSGSNSGNTATLTISGTQAMDEADYYCQAWDSSIVVFGGGTKLTVLGQPKAAPSVTLFPPSSEELQANKATLVCLISDFYPGAVTVAWKADSSPVKAGVETTTPSKQSNNKYAASSYLSLTPEQWKSHRSYSCQVTHEGSTVEKTVAPTECS
# Tested on: HCT-116 cells
# Experiment: Serum stability in human serum, FACS binding to HCT-116 cells
# Type: in vitro ADME
# Details: human serum 37° C.
# Description: The antibody stability in human serum was tested by FACS. Briefly, human serum was freshly isolated by centrifuging the fresh blood twice at 4000 rpm for 10 minutes. […] As a control, antibodies serum mix was frozen immediately without 37° C. incubation. For the FACS analysis, the samples from different time points were free-thawed simultaneously at 4° C. The thawed antibodies were serially diluted and added to 1×10^5/well HCT-116 (ATCC, #CCL-247) cells and incubated for 1 hour at 4° C. The cells were washed twice with 1% BSA/1×PBS (Ca+/Mg+). Alexa647 conjugated Goat anti-human IgG Fc (Jackson, #109-605-098) 1:500 diluted in 1% BSA/1×PBS (Ca+/Mg+) were added to the cells and incubated at 4° C. for 30 minutes. Cells were washed twice in the same buffer and the mean fluorescence (MFI) of stained cells was measured using a FACS Canto II cytometer (BD Biosciences) and analyzed by FlowJo. Wells containing no antibody or secondary antibody only were used to establish background fluorescence. Four-parameter non-linear regression analysis was used to obtain EC50 values for cell binding using GraphPad Prism6 software.
molecule,measurement,setting,value
B1,stable in serum stability test,,at least 14 days
same,"Max MFI, FACS binding with time",Day 0,14400
same,"Max MFI, FACS binding with time",Day 1,15100
same,"Max MFI, FACS binding with time",Day 4,15100
same,"Max MFI, FACS binding with time",Day 7,15700
same,"Max MFI, FACS binding with time",Day 14,15800
